According to patent US6180844A, “Composition containing fluorescence-generating substrate” (Aisin Seiki Kabushiki Kaisha, priority 1998, dated 2001):
For at least one compound, name, drawing or mass did not settle the structure. Some entries repeat one wording, which the source may state once for all of them.

system: human chromosome; assay: In-situ hybridization of a human chromosome: fluorescence-generating substrate reacted with probe-bonded peroxidase and hydrogen peroxide, observed by fluorescence microscope; parameters: key to Intensity of Fluorescence / Binding: +++: Very strong.; ++: Strong.; +: Weak.; ±: Very weak.; -: Not detected; settings: binding of the substrate to the chromosome; same reaction conditions
Excerpt: A human chromosome sample was hybridized with a digoxigenin-labeled, full-length human DNA probe, to which was bonded a peroxidase-labeled anti-digoxigenin antibody. This was reacted with any of fluorescence-generating substrates of the invention (Compounds 1 to 11) or with a comparative substrate of a commercially available, water-soluble fluorescent substrate, 3-(4-hydroxyphenyl)propionic acid (HPPA). […] The full-length human DNA probe hybridizes entirely with the human chromosome. Therefore, if the fluorescence-generating substrates tested herein are reacted in a reaction system comprising peroxidase and hydrogen peroxide, the entire chromosome in the system shall be seen to emit fluorescence in the fluorescence-microscopic observation.
The procedure is as follows:
Human chromosome samples were prepared from cultured human peripheral blood lymphocytes. Full-length human DNA was labeled with digoxigenin through nick translation, collected through ethanol precipitation, and dissolved in formamide to prepare a digoxigenin-labeled, full-length human DNA probe. Each human chromosome sample was immersed in a denaturing solution kept heated at 70° C., for 2 minutes, and then rapidly cooled by putting it into 70% ethanol cooled to 4° C., whereby the double-stranded DNA of the sample was kept dissociated in a single-stranded condition. The probe was kept in a water bath at 75° C. for 10 minutes, and then rapidly cooled in ice water with 5 minutes, whereby the double-stranded DNA of the probe was kept dissociated in a single-stranded condition. This probe was mixed with a hybridization solution, put on the human chromosome sample, and reacted with it overnight at 37° C. (in-situ hybridization).
After having been hybridized, the system was washed with a solution of 50% formamide/2×SSC at 37° C. for 15 minutes, then with 2×SSC at room temperature for 15 minutes, and then with 4×SSC at room temperature for 5 minutes, thereby removing the excess, non-hybridized probe therefrom. Next, a pcroxidase-labeled anti-digoxigenin antibody was diluted with a 1% blocking solution into a 1/100 dilution, and the resulting enzyme-labeled antibody dilution was put on the sample, and maintained at 37° C. for 1 hour. The excess enzyme antibody not bonded to the probe was removed by washing the system with a washing solution containing a surfactant. Any of the fluorescence-generating substrates (Compounds 1 to 11) of the invention and a commercially-available, water-soluble fluorescent substrate, HPPA was dissolved in a reactant solution containing 0.01% hydrogen peroxide […], and the resulting fluorescent substrate solution was put on the sample and reacted with it at room temperature for 30 minutes. After reacting in the reaction system comprising the probe-bonded peroxidase and hydrogen peroxide, the fluorescence-generating substrate formed a new compound which was fixed on the chromosome and emitted fluorescence, which was observed using a fluorescence microscopic.
The full-length human DNA probe hybridizes with the entire chromosome, with the result that the entire chromosome was stained with the fluorescence-generating substrate. Sample were processed with any of the fluorescent substrates (Compounds 1 to 11) as well as the commercially-available, water-soluble fluorescent substrate, […]. […] In addition, the binding of the substrate to the chromosome was checked.

Row | SMILES | Binding
1 | COc1ccc(OC)c(C(=O)Nc2ccc(O)cc2C)c1 [Compound 1, 4-hydroxy-2-methylphenyl-2,5-dimethoxybenzamide] | ++
2 | Cc1cc(O)ccc1NC(=O)c1ccc(-c2ccccc2)cc1 [Compound 2, 4-hydroxy-2-methylphenyl-4-phenylbenzamide] | ++
3 | Cc1cc(O)ccc1NC(=O)c1ccccc1 [Compound 3, 4-hydroxy-2-methylphenylbenzamide] | ++
4 | O=C(Nc1ccc(O)cc1)c1ccccc1 [Compound 4, 4-hydroxyphenylbenzamide] | ++
5 | O=C(Nc1ccc(O)cc1)c1ccc2ccccc2c1 [Compound 5, 4-hydroxyphenyl-2-naphthoylamide] | ++
6 | O=C(Nc1ccc(O)cc1)c1cccc2ccccc12 [Compound 6, 4-hydroxyphenyl-1-naphthoylamide] | ++
7 | Cc1ccc(C(=O)Nc2ccc(O)cc2C)cc1 [Compound 7, 4-hydroxy-2-methylphenyl-4-methylbenzamide] | ++
8 | COc1ccc(C(=O)Nc2ccc(O)cc2C)cc1 [Compound 8, 4-hydroxy-2-methylphenyl-4-methoxybenzamide] | ++

same assay, conditions: human chromosome sample from peripheral blood lymphocytes; substrate in 0.01% hydrogen peroxide, room temperature 30 minutes; fluorescence microscope

Row | SMILES | Intensity of Fluorescence
9 | COc1ccc(OC)c(C(=O)Nc2ccc(O)cc2C)c1 [Compound 1, 4-hydroxy-2-methylphenyl-2,5-dimethoxybenzamide] | ++
10 | Cc1cc(O)ccc1NC(=O)c1ccc(-c2ccccc2)cc1 [Compound 2, 4-hydroxy-2-methylphenyl-4-phenylbenzamide] | +
11 | Cc1cc(O)ccc1NC(=O)c1ccccc1 [Compound 3, 4-hydroxy-2-methylphenylbenzamide] | ++
12 | O=C(Nc1ccc(O)cc1)c1ccccc1 [Compound 4, 4-hydroxyphenylbenzamide] | +
13 | O=C(Nc1ccc(O)cc1)c1ccc2ccccc2c1 [Compound 5, 4-hydroxyphenyl-2-naphthoylamide] | ++
14 | O=C(Nc1ccc(O)cc1)c1cccc2ccccc12 [Compound 6, 4-hydroxyphenyl-1-naphthoylamide] | +
15 | Cc1ccc(C(=O)Nc2ccc(O)cc2C)cc1 [Compound 7, 4-hydroxy-2-methylphenyl-4-methylbenzamide] | ++
16 | COc1ccc(C(=O)Nc2ccc(O)cc2C)cc1 [Compound 8, 4-hydroxy-2-methylphenyl-4-methoxybenzamide] | ++

same assay, conditions: summary of Table 1

Row | SMILES | fluorescent signals observed
17 | Cc1cc(O)ccc1NC(=O)c1ccccc1 [Compound 3, 4-hydroxy-2-methylphenylbenzamide] | high-intensity fluorescent signals were observed
18 | Cc1ccc(C(=O)Nc2ccc(O)cc2C)cc1 [Compound 7, 4-hydroxy-2-methylphenyl-4-methylbenzamide] | high-intensity fluorescent signals were observed
19 | COc1ccc(C(=O)Nc2ccc(O)cc2C)cc1 [Compound 8, 4-hydroxy-2-methylphenyl-4-methoxybenzamide] | high-intensity fluorescent signals were observed
